# Source: PubChem BioAssay AID485344 (National Center for Advancing Translational Sciences (NCATS), 2010)
# In all, about 340,000 compounds went through this assay and about 6,900 (2%) were called active. Cut-off read from the data, not from the text of the source: active = inhibition above about 30%; inactive = below that, where a call was filed. Only a part is listed here, and it is no random draw. The source gives no active or inactive call for entries shown without one.
# Target: D(2) dopamine receptor (Homo sapiens) (UniProt P14416)
# Sequence of UniProt P14416 (P14416 whole entry, looked up): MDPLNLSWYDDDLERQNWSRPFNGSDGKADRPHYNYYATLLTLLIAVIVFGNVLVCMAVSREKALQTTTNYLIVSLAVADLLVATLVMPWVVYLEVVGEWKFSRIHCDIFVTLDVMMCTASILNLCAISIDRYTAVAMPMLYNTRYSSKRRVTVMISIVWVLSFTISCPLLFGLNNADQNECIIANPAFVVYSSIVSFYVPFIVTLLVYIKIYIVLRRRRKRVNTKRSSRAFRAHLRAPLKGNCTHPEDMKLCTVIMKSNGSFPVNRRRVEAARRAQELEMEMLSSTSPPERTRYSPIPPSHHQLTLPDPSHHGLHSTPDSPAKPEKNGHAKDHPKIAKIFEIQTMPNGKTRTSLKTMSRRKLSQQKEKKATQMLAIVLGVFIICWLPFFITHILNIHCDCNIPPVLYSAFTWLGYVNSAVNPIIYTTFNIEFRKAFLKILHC
# Experiment: HTS Assay for Allosteric Antagonists of the Human D2 Dopamine Receptor: Primary Screen for Antagonists; note: 0% is about no effect
# Settings: HEK293 TREx D2 cells, calcium flux, dopamine EC80; at 10 µM; stronger effect = higher value
# How it was run: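 Calcium mobilization kinetics were recorded at 1 s intervals in tetracycline-induced HEK293 T-REx D2 cells, first for 180 s after compound addition and then 180 s after EC80 dopamine.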
row,SMILES,inhibition
1,CCOC(=O)N1CCc2c(sc(NCc3ccc(N(CC)CC)cc3)c2C(=O)Nc2cc(OC)ccc2OC)C1,2.51%
2,O=S(=O)(NCC(c1cccs1)S(=O)(=O)c1ccccc1)c1ccccc1 (configuration not stated),12.8%
3,CCOC(=O)C(NC(=O)c1ccccc1)(Nc1cc(C)on1)C(F)(F)F (configuration not stated),active: 31.2%
4,COc1ccc(-c2nc3n(n2)C(c2ccccc2OC)C(C(=O)Nc2cccnc2)=C(C)N3)cc1 (configuration not stated),14.9%
5,CCOc1ccc(NC(=O)Cn2c(=O)n(CCCCC(=O)NCCc3ccc(Cl)cc3)c(=O)c3ccccc32)cc1,0.982%
6,CCOc1ccc(C(=O)Nc2ccc3oc(-c4ccc(C)cc4C)nc3c2)cc1Br,-4.49%
7,CCc1ccccc1NC(=O)CC1NCCNC1=O (configuration not stated),26.9%
8,O=C(C1CCC(CNS(=O)(=O)c2ccc(Br)s2)CC1)N1CCN(c2ccc(F)cc2)CC1 (configuration not stated),-16.6%
9,O=C(Nc1cccc(Cl)c1)N1CC2CCCN2c2ccccc21 (configuration not stated),-4.49%
10,Cc1oc(-c2ccccc2F)nc1CS(=O)CC(=O)NC(C)C (configuration not stated),2.23%
11,COc1ccc(OC)c(NC(=O)c2cccc3c2C(=O)N(C2CCCCC2)C3)c1,-1.67%
12,Cc1cccc(Cn2c(CNS(=O)(=O)c3ccc(C(C)C)cc3)nc3cccnc32)c1,11.3%
13,O=C(CSc1nc2c([nH]c3ccccc32)c(=O)n1-c1ccc(F)cc1)N1CCc2ccccc21,-25%
14,CCc1ccc(-n2nc(CO)c(C(=O)NCCc3ccccc3)n2)cc1,9.19%
15,Cc1cc(C)cc(-n2c(SCC(=O)N3CCC(C)CC3)nc3c([nH]c4ccccc43)c2=O)c1,8.39%
16,Cc1ccc(C)c(N2CCN(C(=O)Cc3c(C(=O)O)c(C)cn3C)CC2)c1,5.64%
17,COc1cccc(C(=O)N2CCCCC2CCN2CCCCC2)c1 (configuration not stated),-20%
18,CCOC(=O)c1cc2c(=O)n3ccccc3nc2n(CC2CCCO2)c1=NC(=O)c1ccccc1C (configuration not stated),8.12%
19,CCOc1ccc2nc(N3CCN(C(=O)c4ccco4)CC3)sc2c1,12.3%
20,Cc1ccc2c(=O)cc(C(=O)NCc3ccccc3)oc2c1,11.3%
21,COc1ccc(CNC(=O)C2CCCN(S(=O)(=O)c3ccc4c(ccn4C)c3)C2)c(OC)c1 (configuration not stated),7.32%
22,COc1ccc(NC(C)=O)cc1NC(=O)C1(c2cccs2)CCOCC1,-8.09%
23,CCOC(=O)C1CCN(Cc2cccc(OCc3ccccc3)c2)CC1,active: 86.2%
24,O=S(=O)(c1ccc(F)cc1)N(CC(O)Cn1c2ccccc2c2ccccc21)c1ccccc1 (configuration not stated),-12.8%
25,COc1ccc(C(=O)NCC(c2ccc3c(c2)OCO3)N2CCN(C)CC2)cc1 (configuration not stated),-12.5%

row,SMILES,inhibition
1,COc1cc(OC)c(N(C)C(=O)c2c(C)oc3ncnc(N4CCCCC4)c23)cc1Cl,8%
2,CCOc1ccc(CCNC(=O)c2nnc(Cc3ccc(Cl)cc3Cl)o2)cc1OCC,5.33%
3,COc1ccccc1C(=O)NCCC(=O)NC(C)c1ccc(-n2ccnc2)cc1 (configuration not stated),active: 32.7%
4,COc1cc(OC)c(NC(=O)N2CCc3c([nH]c4ccccc34)C2c2ccccc2F)cc1Cl (configuration not stated),5.27%
5,O=C(Nc1ccccc1F)c1ccc(Cn2nc(N3CCN(c4ccccc4)CC3)ccc2=O)o1,5.19%
6,Cn1cc(/C=N/NC(=O)c2cc3cc(Br)ccc3o2)c2ccccc21,active: 65.6%
7,CCc1cc(C(=O)Nc2c(C)nn(Cc3ccccc3Cl)c2C)no1,2.48%
8,O=C(CCC(=O)N1CC2CCCN2c2ccccc21)NCc1ccc(F)cc1 (configuration not stated),17.3%
9,Cc1cc(C)c(NC(=O)CN2C(=O)c3cccnc3Sc3ccccc32)c(C)c1,14.4%
10,COc1ccc(-c2nc(CSCC(=O)N3CCc4ccccc4C3)c(C)o2)cc1OC,active: 45.3%
11,CCc1ccc(-n2c(=O)c3sc4ccccc4c3n(CC(=O)N(CC)Cc3ccccc3)c2=O)cc1,4.37%
12,Cc1ccc2sc(-c3ccc(N)cc3)nc2c1,-28.4%
13,CCOC(=O)c1c(C)[nH]c(C)c1S(=O)(=O)N1CCCC(C(=O)Nc2cc(C)ccc2C)C1 (configuration not stated),-0.158%
14,CCC(=O)N1CCc2cc(CNC(=O)c3ccccc3C)ccc21,3.59%
15,CCCCNC(=O)CSc1nc2nc(C)c(Cc3c(F)cccc3Cl)c(C)n2n1,10.8%
16,CC(=O)c1ccc(NC(=O)COc2ccccc2-c2nc(-c3ccc(C)cc3)no2)cc1,-5.12%
17,Cc1ccc(OCC(=O)Nc2ccccc2C(=O)OCc2cc(=O)n3ccsc3n2)cc1,7.56%
18,O=C(C1CCC(Cn2c(=O)c3sccc3n(Cc3ccccc3)c2=O)CC1)N1CCOCC1 (configuration not stated),-14.6%
19,O=C(NC1CC(=O)N(c2cccc(F)c2)C1)c1ccc2c(c1)OCO2 (configuration not stated),-25.7%
20,O=C(Nc1cc2c(cc1C(=O)c1ccccc1Br)OCCO2)c1ccccc1,-10.3%
21,Cc1ccc(Cl)cc1N1CCN(C(=O)c2cnn(C)c2C2CCN(C(=O)OC(C)(C)C)CC2)CC1,8.29%
22,Cc1ccc(-c2nnc(Nc3ccccc3O)c3ccccc23)cc1,5.88%
23,CSc1ccc(CNC(=O)Cn2nc(N3CCN(c4ccccc4)CC3)ccc2=O)cc1,-5.41%
24,CC(c1n[nH]c(=S)n1-c1ccccc1)N1CCCCC1 (configuration not stated),active: 70.7%
25,COc1cccc(NC(=O)CSc2nnc(-c3cccc(OC)c3)o2)c1,-22.2%

row,SMILES,inhibition
1,Cc1ccc(NC(=O)CSc2ncc(-c3ccccc3)[nH]2)cc1,-7.68%
2,COc1ccc(-[n+]2c(C)cc(/C=C3\Sc4ccccc4N3C)cc2C)cc1,active: 47.7%
3,COc1ccc(S(=O)(=O)c2c(Nc3ccccc3F)sc(C(=O)c3cccc(OC)c3)c2N)cc1,6.72%
4,CCc1ccc(NC(=O)NCCc2c(C)nn(C)c2C)cc1,-7.28%
5,CCc1ccc(NC(=O)CC2C(=O)NCCN2C(=O)c2ccc(F)cc2)cc1 (configuration not stated),2.92%
6,CCOc1ccccc1CNC(=O)c1ccc(CS(=O)Cc2cccc(Cl)c2)o1 (configuration not stated),-0.963%
7,COc1cccc(C2CC(=O)Nc3c2ccc(C)c3C)c1OC (configuration not stated),-11.3%
8,Cc1cccc(NC(=O)CSc2nnc(NC(=O)Nc3ccccc3)s2)c1C,20.2%
9,CSc1ccc(C2C(C(=O)Nc3ccccc3)=C(C)Nc3nc4ccccc4n32)cc1 (configuration not stated),-1.46%
10,CCN(CC)c1ccc(CNCCCSc2nnnn2C)cc1,10.5%
11,COc1ccc(CNC(=O)c2cc(Nc3ccccc3C)nc3ccccc23)cc1,7.96%
12,Cc1oc2ncn(C)c(=O)c2c1C(=O)N1CCN(c2cccc(C(F)(F)F)c2)CC1,4.04%
13,COCCNc1nc2c(c(=O)n(C)c(=O)n2C)n1Cc1c(F)cccc1Cl,-13.4%
14,CCOc1ccc(CN2C(=O)c3ccccc3Sc3ccc(C(=O)NCc4ccco4)cc32)cc1,-2.67%
15,COc1ccc(Cl)cc1NC(=O)CSc1cn(CC(=O)N2CCCCC2)c2ccccc12,-4.04%
16,CCCCN(C)CCCNC(=O)C1CCN(S(=O)(=O)CCC)CC1,19.2%
17,COc1cc(C2C(=O)N(C3CCCCC3)CC(=O)N2CCc2ccccc2)ccc1OC(C)C (configuration not stated),-5.13%
18,COc1ccc(-c2cc(C(F)(F)F)nc(SCCC(=O)Nc3ccc(NC(C)=O)cc3)n2)cc1,-2.26%
19,O=C(Nc1ccccc1C(F)(F)F)c1ncoc1-c1ccco1,-5.05%
20,CCN(CC)C(=O)NC1CC2CCCC(C1)N2Cc1ccccc1 (configuration not stated),active: 91.9%
21,Cc1nn(-c2ccccc2)c(OC(=O)c2ccccc2Br)c1S(=O)(=O)c1ccccc1,3.47%
22,COc1ccccc1CNc1nc2ccc(C)cc2n2nnnc12,-5.54%
23,Cc1cc(NC(=O)c2ccc3c(c2)N(Cc2cccc(Cl)c2)C(=O)c2ccccc2S3(=O)=O)ccc1Br,-22.1%
24,O=C(CS(=O)(=O)c1cccc2nsnc12)N1CCN(c2ccccc2F)CC1,9.32%
25,O=C(Cc1ccccc1)NN1C(=O)/C(=C/c2ccccc2C(=O)O)SC1=S,active: 30.7%

row,SMILES,inhibition
1,O=C1CC(c2c(Cl)cccc2Cl)c2c(ccc3ccccc23)N1 (configuration not stated),6.1%
2,CC(C(=O)Nc1cccc([N+](=O)[O-])c1)N1CCN(C/C=C/c2ccccc2)CC1 (configuration not stated),active: 47%
3,CC1=C(C(=O)Nc2ccccc2Cl)C(c2cccc(O)c2)n2ncnc2N1 (configuration not stated),-19.8%
4,CCc1ccccc1NC(=O)CCCSc1nc(-c2ccco2)cc(C(F)(F)F)n1,11.5%
5,COc1ccc(NC(=O)C2=CC(c3ccco3)=NS(=O)(=O)N2C)cc1OC,11.8%
6,CCCN(C(=O)c1cn(C)c(=O)c2cc(OC)c(OC)cc12)c1ccc(CC)cc1,3.06%
7,CCN(c1ccccc1)S(=O)(=O)c1nnc(NC(=O)c2ccccc2OC)s1,-9.86%
8,CCOCCc1nn2c(=O)cc(COC(=O)c3ccc(NC(=O)C4CCCCC4)cc3)nc2s1,2.2%
9,COc1ccc(S(=O)(=O)c2c(Nc3cccc(C)c3C)sc(C(=O)c3ccccc3)c2N)cc1,3.13%
10,COc1ccc(-c2nc(SCC(=O)NC(C)CCc3ccccc3)n[nH]2)cc1 (configuration not stated),-18.2%
11,CCOC(=O)c1c(C)oc2nc(C)nc(NCCc3ccc(OCC)c(OCC)c3)c12,-9.91%
12,COc1ccc(N2CCN(c3ncnc4c3cnn4-c3ccc(F)cc3)CC2)cc1,-8.02%
13,CCN(c1ccccc1)S(=O)(=O)c1c(C)nc2scc(C)n2c1=O,-22.7%
14,COC(=O)c1ccc(NC(=O)CSc2cn(CC(=O)N3CCCCC3)c3ccccc23)cc1,9.3%
15,CC1CCN(S(=O)(=O)c2ccc3c(c2)c(=O)c(C(=O)N2CCN(c4cccc(Cl)c4)CC2)cn3C)CC1,18%
16,O=c1c2cc3c(cc2nc2sc(Nc4ccccc4)nn12)OCO3,16.7%
17,COc1ccc(NC(=O)CN2CCN(CC(=O)Nc3ccccc3F)CC2)c(OC)c1,8.02%
18,O=C(Cn1cncn1)N/N=C/c1cc([N+](=O)[O-])ccc1O,active: 51.9%
19,CCCCC(=O)Nc1c(C(=O)N2CCN(c3ccccc3F)CC2)oc2ccccc12,6.01%
20,CCCOC(=O)c1cccc(NC(=O)c2c(-c3ccccc3Cl)noc2C)c1,-5.97%
21,O=C(Cn1nc(-c2ccc(Cl)cc2)c2ccccc2c1=O)Nc1cccc(Br)c1,15.6%
22,CC(C)[C@H](NC(=O)N1CCn2c1nc1ccccc12)C(=O)N[C@H](C(=O)O)c1ccccc1,active: 58%
